Molecules are shown by their SMILES. Over roughly 110,000 compounds, “z-score” has its median near -0.1; the highest 2% begin near 2. Some of the results follow.

This test has as its target Metabotropic glutamate receptor 8 (Rattus norvegicus) (UniProt P70579). As to the kind of experiment: rat mGluR8 modulators via GIRK flux, primary screen, cell-based, thallium flux, HTS (AID 488969). To be noted: HEK293 rat mGluR8, GIRK (G protein-gated inwardly rectifying potassium channel) thallium flux, FluoZin2; at 10 µM; stronger effect = higher value; submaximal glutamate (EC20) added with thallium.
UniProt P70579, sequence (P70579 whole entry, looked up): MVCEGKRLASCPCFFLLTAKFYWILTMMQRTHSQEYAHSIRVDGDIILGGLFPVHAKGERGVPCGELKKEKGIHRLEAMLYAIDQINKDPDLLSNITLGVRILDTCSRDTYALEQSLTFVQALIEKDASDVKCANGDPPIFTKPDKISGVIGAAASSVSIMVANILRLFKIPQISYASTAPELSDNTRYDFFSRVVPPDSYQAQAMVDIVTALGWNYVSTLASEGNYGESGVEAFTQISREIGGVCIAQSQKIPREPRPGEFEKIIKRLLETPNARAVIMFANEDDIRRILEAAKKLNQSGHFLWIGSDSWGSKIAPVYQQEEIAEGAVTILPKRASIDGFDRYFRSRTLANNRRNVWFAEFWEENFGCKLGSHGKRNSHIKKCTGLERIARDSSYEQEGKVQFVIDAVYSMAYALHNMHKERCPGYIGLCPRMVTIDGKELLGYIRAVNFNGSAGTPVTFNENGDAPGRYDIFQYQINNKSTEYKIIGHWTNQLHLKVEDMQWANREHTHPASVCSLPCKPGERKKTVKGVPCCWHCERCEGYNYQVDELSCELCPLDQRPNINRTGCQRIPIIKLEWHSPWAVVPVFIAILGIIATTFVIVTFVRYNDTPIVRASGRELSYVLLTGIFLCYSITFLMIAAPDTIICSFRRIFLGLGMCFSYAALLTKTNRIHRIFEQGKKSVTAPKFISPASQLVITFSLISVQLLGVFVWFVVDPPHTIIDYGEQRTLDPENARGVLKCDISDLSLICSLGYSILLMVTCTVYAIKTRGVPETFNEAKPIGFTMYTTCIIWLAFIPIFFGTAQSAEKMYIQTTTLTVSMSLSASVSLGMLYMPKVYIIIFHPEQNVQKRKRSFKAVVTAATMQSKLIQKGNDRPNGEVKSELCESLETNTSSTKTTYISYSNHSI
Turning to `O=C1CC(N(Cc2cccs2)C(=O)Nc2ccccc2)C(=O)N1c1ccc(Cl)cc1` (stereo not given), the z-score is -0.102. Under `CCOC(=O)CNC(=O)c1sc2ncnc(N3CCc4ccccc4C3)c2c1C` stands -0.962; under `O=C(CSC1CC(=O)N(CC(c2ccccc2)c2ccccc2)C1=O)Nc1ccc(Cl)cc1` (stereo not given), 0.0431; under `CCN(CC)CCCOc1ccc(Cl)c(Cl)c1`, 0.523.

For the compound `CCOc1cc(C2C(C(=O)N3CCCCC3)=C(C)NC3=C2C(=O)CC(C)(C)C3)ccc1O` (stereo not given), the z-score was 0.026. Under `CCOC(=O)N1CCN(c2cc(=O)n(-c3ccc(OCC)cc3)c(=O)[nH]2)CC1` stands -0.000123. The result for `CNC(=O)c1ccc(Oc2ccc(C(=O)NC)cc2)cc1` reads -0.0105; that for `CC(C)C(=O)Nc1ccc(NC(=O)c2ccccc2Cl)nc1`, -0.115. Under `CCc1nnc(NC(=O)CSc2ncnc3scc(-c4ccc(C)cc4)c23)s1` stands 0.0303. For the compound `Cc1cc(C(=O)Nn2c(C3CCCCC3)nc3ccccc3c2=O)ccc1[N+](=O)[O-]`, the z-score came out at 0.924. Under `CCCC(c1nnnn1CC1CCCO1)N1CCN(c2cc(Cl)ccc2C)CC1` (stereo not given) stands -0.0991; under `Cn1ccnc1SCC(=O)Nc1cc(C(F)(F)F)ccc1N1CCOCC1`, -0.568; under `C=CCSc1cc(C)nc2c(-c3ccc(Cl)cc3)c(C)nn12`, -0.522. As for `O=[N+]([O-])c1ccc(/C=N\N2CCN(c3ccc(Cl)cc3)CC2)cc1`, the z-score was -0.325. Under `O=Cc1cnc(N2CCOCC2)nc1` stands -0.0597; under `Clc1cccc(N/N=C(\Cc2nc3ccccc3[nH]2)c2ccccc2)c1`, 0.0568; under `CCOC(=O)c1ccccc1NC(=O)CSc1nnnn1C1CCCCC1`, 0.716. The result for `c1ccc2c(c1)ncn2CCN1CCCCC1` reads 0.0727. Regarding `CC1=C(C)CS(=O)N(S(=O)(=O)c2ccccc2)C1` (stereo not given), the z-score amounted to 0.26. The result for `COc1ccc(C2C(C(=O)OCC3CCCO3)=C(C)NC3=C2C(=O)CC(c2ccco2)C3)cc1O` (stereo not given) reads -0.38. Under `CCOc1ccc(-n2nnnc2SCC(=O)N2CCOCC2)cc1` stands -0.126; under `COCCN1CN=C(Nc2nc3ccccc3s2)NC1`, -0.137. The result for `Cc1cc(=O)[nH]c(SCC(=O)Nc2ccc(S(=O)(=O)N3CCOCC3)cc2)n1` reads -0.0702; that for `CC(C)NC(=O)c1cc2cc(Br)ccc2oc1=O`, -0.497; that for `Cc1ccc(C(=O)c2c[nH]c(C(=O)NCCCN3CCOCC3)c2)cc1`, -0.221. Consider `COc1ccc(Cc2nnc(SCC(=O)c3ccc(OC)cc3)o2)cc1`, for which the z-score is -0.98. The result for `CCOC(=O)NC(NS(=O)(=O)c1ccccc1)(C(=O)OCC)C(F)(F)F` (stereo not given) reads 0.0224; that for `CCOC(=O)c1ccc(NC(=S)NCCC2=CCCCC2)cc1`, -0.19. Under `COc1ccc(N2CCN(C(=O)CCNS(=O)(=O)c3cccs3)CC2)cc1` stands -0.35; under `O=C(/C=C/c1ccccc1)N/C(=C/c1ccccc1)C(=O)N1CCCCC1`, -0.109; under `O=C(OCc1nc2scc(-c3ccccc3)c2c(=O)[nH]1)c1cccc([N+](=O)[O-])c1`, 0.666.

`Cc1ccccc1OCC(=O)OCC(=O)c1ccc(-c2ccccc2)cc1`: the z-score was -0.0383. The result for `O=C(N/N=C/c1cccc(C(F)(F)F)c1)c1cc2c(s1)-c1ccccc1CC2` reads -0.0383. Under `CCOc1ccccc1N(C(=O)c1ccco1)C(C(=O)NC1CCCC1)c1cccnc1` (stereo not given) stands -0.287; under `CCOc1cc(C)c(-c2onc(C(F)(F)F)c2-c2csc(C)n2)c(O)c1`, -0.697; under `S=C(NCc1cccs1)Nc1ccccc1`, -0.293. The result for `Cc1cc(C(C)(C)C)oc1C(=O)N(CC(=O)NC1CCCC1)Cc1ccc(Cl)cc1` reads 0.163; that for `CCC12CN3CC(CC)(CN(C1)C3c1c(O)ccc3ccccc13)C2=O` (stereo not given), -0.25; that for `Cc1noc(C)c1C(=O)Nc1ccc2c(c1)CCC2`, -0.0214. Regarding `Cn1ncc2nnn(-c3ccccc3)c(=O)c21`, the z-score is -0.44. Under `COc1ccc(/C=N/c2c(-c3ccco3)nc3ccccn23)cc1OC` stands -0.603.

The compound `CCOc1cc(N2CCOCC2)c(OCC)cc1NC(=O)CC12CC3CC(CC(C3)C1)C2` returned a z-score of 0.741. On to `Cc1cc(N2C(=O)C=CC2=O)c([N+](=O)[O-])cc1C`, for which the z-score was 0.497.

In turn, `CCCC1CCc2c(c3ccccc3[nH]c2=O)O1` (stereo not given) came in with a z-score of 0.709.

On to `CC(C)C(NC(=O)c1ccco1)C(=O)NCC(c1ccco1)N1CCCCC1` (stereo not given), for which the z-score was -0.238.

In turn, `O=C(Nc1cc(Cl)c(O)c(Cl)c1)C1CCCO1` (stereo not given) registered a z-score of 0.322.

`Nc1sc(-c2ccccc2)cc1C(=O)O` returned a z-score of 1.07.

Turning to `C(=N\n1cnnc1)/C1CCCCC1`, the z-score was -0.0189.

`O=C(Cn1cc2c(n1)CCCC2)NCCc1ccccc1`: the z-score amounted to 0.294. The result for `Cc1ccc(Cn2ccc(NC(=O)c3cc(-c4ccc5c(c4)OCO5)on3)n2)cc1` reads -0.762; that for `CC1=C(C(=O)OC2CCCCC2)C(c2ccc(C)o2)C2=C(CC(C)(C)CC2=O)N1` (stereo not given), 0.464. The result for `COc1ccc(N(CC(=O)N2CCCCCC2)S(=O)(=O)c2c(C)[nH]c(=O)[nH]c2=O)cc1` reads -0.21; that for `CCN(CC)CCCNC(=O)c1cc(Sc2nnc(C)s2)nc2ccccc12`, -0.71; that for `O=C(CCN1C(=O)c2ccncc2C1=O)Nc1ccc(F)cc1`, 0.269. The result for `CCCN1CCN(C(=O)C2CCN(S(=O)(=O)c3ccc4c(c3)oc(=O)n4C)CC2)CC1` reads 0.466; that for `O=[N+]([O-])c1ccccc1S(=O)(=O)Oc1ccc(/C=N/n2cnnc2)cc1`, -0.274; that for `CCC(C)NC(=O)c1ccccc1C(=O)NC(C)CC` (stereo not given), 0.631. As to `O=C(C1=C(O)C(=O)N(Cc2ccco2)C1c1cccnc1)c1cc2ccccc2o1` (stereo not given), the z-score is -0.567.

On to `O=C(Nc1ccc(S(=O)(=O)N2CCCC2)cc1Cl)C1=COCCO1`, for which the z-score was -0.178.

`COc1cc(C(=O)Nc2ccccn2)cc(OC)c1OC`: the z-score amounted to 0.165. The result for `C=CCOC(=O)COc1ccc2c(C)c(CC)c(=O)oc2c1` reads -1.65. In the case of `O=C(NC1CCCCC1)NC1CC2CCC(C1)N2C(=O)NCc1ccccc1` (stereo not given), the z-score was -1.66. Under `CC(=O)Nc1ccc(/C=N/OCC(=O)Nc2ccc(C)cc2)cc1` stands 0.00813; under `CCCCN=CC1=C(O)C(C(=O)OC)C(C)(C)CC1=O` (stereo not given), -0.348; under `COc1ccc(Br)cc1CNC(=O)C1CCCN(c2nc3ccccc3o2)C1` (stereo not given), -0.0171.

Regarding `Cc1c(C(=O)NCc2ccccc2)c(-c2ccccc2)nn1-c1ccccc1`, the z-score was -0.287. Under `COc1cccc(C(=O)Nc2ccc(NC(C)=O)cc2)c1` stands -0.121; under `Cc1cc[n+](-c2[nH]c(=O)sc2/C=N/NC(=O)c2ccccc2[O-])cc1C`, -0.403; under `COc1cccc(/C=N/NC(=O)C(=O)N2CCCC2)c1O`, -0.494. Under `CC(Sc1nnc2c(n1)C1CCC2(C)C1(C)C)C(=O)Nc1ccccc1` (stereo not given) stands -0.186.
